From PubChem BioAssay AID1159614 (National Center for Advancing Translational Sciences (NCATS), 2016)
Out of some 45,000 compounds screened, about 65 (0.1%) were called active. Calls follow the shape of the dose curve; as a rule, active = well fitted activation curve with a large enough effect; inconclusive = small, poorly fitted or top-dose-only effect; inactive = no such curve, though single readings can be large or run the other way. This is one part of the list.

Target: Galactocerebrosidase (Homo sapiens) (UniProt P54803)
Experiment: A Novel Cell-Based Assay to Identify Small Molecules for B -Galactocerebrosidase; also: 0% is about no effect; nearly all actives have a fitted effect of over 65% in size
Conditions: 145M-Twi-hGALC-G270D cells (Twitcher mouse brain line with human GALC G270D), HMU-beta-Gal fluorescence, 48 h; series mostly up to 57.5 µM; activation: at the top concentration
Method in brief: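 Brain-derived Twitcher mouse 145M-Twi cells stably expressing human GALC-G270D or wild-type GALC, treated live, then residual GALC activity read by fluorescence of HMU-b-Gal substrate (0.1 mM final) in citrate-phosphate buffer pH 5.2 with sodium taurocholate. Signal increase indicates enhancement.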

activation, inactive:
COc1ccc(-c2cc(-c3ccc(F)cc3)nc3c2COc2ccccc2-3)cc1 -7.39%
CCc1ccc(CNC(=O)c2sc3ncnc(N(C)C4CCCCC4)c3c2C)cc1 -1.39%
COc1ccc(CCCc2nnc(SCC(=O)Nc3ccc(Cl)cc3)o2)cc1 -16.3%
CCOc1ccc(OCC)c(NC(=O)c2c(C)nn(-c3ccccc3)c2-n2cccc2)c1 -3.22%
Cc1nn(C)c2c1c(C(F)(F)F)cc(=O)n2CC(=O)NC(C)(C)C -11.1%
Cc1ccccc1CN1C(=O)C(O)(CC(=O)c2cccc(Br)c2)c2ccccc21 (stereo not given) -20.3%
COc1ccc(Nc2cc(C(=O)NCCCN(C)C3CCCCC3)c3ccccc3n2)cc1 -15.4%
Cc1c(C(=O)NCc2ccccc2)oc2c1-c1[nH]ncc1CC2 -9.99%
CCOc1ccccc1C1Nc2ccccc2-c2nnc(SCc3ccccc3)nc2O1 (stereo not given) -8.18%
COc1ccc(Br)cc1CNC(=O)c1ccc(-n2c(C)cc3c2CCC(C)C3)cc1 (stereo not given) -28.5%
Cc1cccc(C(=O)Nc2nnc(S(=O)(=O)N3c4ccccc4CC3C)s2)c1 (stereo not given) -7.04%
Cc1cc(O)c(CN2CCN(c3ccc(F)cc3)CC2)c2oc(=O)cc(C)c12 -22.7%
COCCCn1c(=N)c(C(=O)NC2CCCC2)cc2c(=O)n3cc(C)ccc3nc21 -3.72%
CCOc1ccc(-c2nnc(SCC(=O)NCCc3ccccc3)nc2-c2ccc(OCC)c(OC)c2)cc1OC -16.6%
CCCN(C(=O)Cn1nc(Cc2ccncc2)c2ccccc2c1=O)c1ccccc1C -10.2%
CC(=O)N1CCCc2cc(S(=O)(=O)N3CCCC(C(=O)Nc4ccc(C)c(C)c4)C3)ccc21 (stereo not given) -8.29%
CC(C)(C)c1ccc(S(=O)(=O)Nc2ccc(O)c(Sc3nc4ccccc4s3)c2)cc1 -17.1%
CCOc1ccccc1NC(=O)c1cc(S(=O)(=O)NC2CCCC2)ccc1F 1.85%
Cc1ccc(C(=O)Nc2ccc3oc(-c4cccnc4)nc3c2)c(Cl)c1 -10.7%
COc1cccc(-c2cnc(NCc3ccccc3Cl)n2C)c1 -8.41%
Cc1coc2cc3oc(=O)c(CC(=O)NCc4ccccc4)c(C)c3cc12 -5.94%
Cc1ccc(S(=O)(=O)Nc2cc3c(cc2Cl)n(C)c(=O)c(=O)n3C)cc1 -11.6%
Cc1ccc(C)c(N2CCN(C(=O)c3cc4c(=O)n(Cc5cccs5)ccc4nc3C)CC2)c1 -17.6%
CCOc1ccc2nc(N3CCC(C(=O)Nc4c(C)cccc4C)CC3)sc2c1 -16.1%
Cc1ccc(-n2ncc(C(=O)N3CCC(c4ccccc4)C3)c2C2CCN(C(=O)OC(C)(C)C)CC2)cc1 (stereo not given) -15.1%
CCCCOc1ccc(CNC(=O)c2ccc(NC(=O)N3CCSc4ncccc43)cc2)cc1 2.23%
CCOc1cc(NC(C)=O)ccc1C(=O)OC -16.3%
Cc1ccc(C)c(CN2C(=O)c3ccccc3S(=O)c3ccc(C(=O)N(C)Cc4ccccc4)cc32)c1 (stereo not given) -8.41%
O=c1[nH]cc(F)c(=O)[nH]1 -12.8%
Cc1cccc(N2CCN(C(=O)C3CCN(S(=O)(=O)c4ccc5c(c4)oc(=O)n5C)CC3)CC2)c1C -41.8%
COC(=O)CCN(C(=O)c1c(C)oc2ncnc(N3CCOCC3)c12)c1ccccc1 -3.37%
O=c1c2c3c(sc2n(Cc2cc(=O)n4ccccc4n2)c(=O)n1-c1ccc(Cl)cc1)CCC3 -13%
Cc1cc(C)c2oc(C(=O)Nc3ccc(S(=O)(=O)N(C)c4ccccc4)cc3)cc(=O)c2c1 -13%
O=C(Nc1nc(-c2ccc(Br)cc2)ns1)c1ccccc1F -4.04%
CCCc1nn2c(C)c(-c3ccccc3)nc2s1 -1.84%
CS(=O)(=O)c1ccc([C@@H](O)[C@@H](CO)NC(=O)C(Cl)Cl)cc1 -14%
COC(=O)CSc1nnc2n(-c3ccccc3)c(=O)c3c4c(sc3n12)COC(C(C)C)C4 (stereo not given) 4.33%
CCC(=O)N1CCc2cc(S(=O)(=O)N(C)c3cccc(C)c3)ccc21 -15.4%
CCOc1ccccc1N(C)C(=O)Cn1nc(Cc2cccnc2)c2ccccc2c1=O -14.4%
CCOc1ccccc1N1CC(c2nc3ccccc3n2CCOc2ccc(C(C)(C)C)cc2)CC1=O (stereo not given) -11.9%
CCN(c1cc(C)cc(C)c1)S(=O)(=O)c1nnc(NC(=O)c2cccc(F)c2)s1 -14.7%
Cc1ccccc1NC(=O)c1sc2nc(N3CCOCC3)c3c(c2c1N)CC(C)(C)OC3 -18.1%
Cc1ccc(NC(=O)/C(C#N)=C\c2ccc(Cl)cc2Cl)cc1C 1.47%
COc1ccc2c(c1)c1c(c(=O)n(CCc3ccccc3)c(=O)n1Cc1ccc(Cl)cc1)n2C -3.24%
COc1cc(NC(=O)N2CCN(c3cc(-c4noc(C)n4)ccc3C)CC2)cc(OC)c1OC -18.9%
CCN(CC)CCNC(=O)c1cc2c(=O)[nH]c3ccc(C)cc3c2s1 4.91%
CC(C)c1ccccc1NC(=O)CSc1nnc(COc2ccccc2Cl)o1 -20.5%
CCN(c1ccc(C)cc1)S(=O)(=O)c1nnc(NC(=O)c2cccs2)s1 -16.5%
CCOc1ccccc1NC(=O)N1CCN(S(=O)(=O)c2ccc3c(ccn3C)c2)CC1 -1.01%
COc1ccccc1CNC(=O)Cn1ncc2c(C)n(Cc3ccccc3Cl)c(C)c2c1=O -2.52%
Nc1c(-c2nc(-c3ccccc3)no2)nnn1CC(=O)Nc1ccccc1 -15.1%
Cc1ccc(-c2ccc(CCC(=O)O)n2-c2ccc(C(C)C)cc2)cc1 -7.58%
O=C(NCC(c1ccc2c(c1)OCO2)N1CCN(c2ccccc2)CC1)C(=O)Nc1cccc(F)c1 (stereo not given) -11.3%
Cc1ccc(CSC2=Nc3ccccc3C3=NC(CCC(=O)NCc4cccs4)C(=O)N23)cc1 (stereo not given) -19.7%
CCN(CCCNC(=O)c1ccc(Sc2ccc(F)cc2)c(NC(C)=O)c1)c1ccccc1 -5.62%
COc1ccc(CNC(=O)Cn2c(=O)nc(-c3ccccc3F)c3cc(Cl)ccc32)cc1 -8.14%
CCN(CC)C(=O)CSc1nc2cc3c(cc2c(=O)n1CCCCCC(=O)NCc1ccc(OC)cc1)OCO3 -6.52%
O=C(NCc1ccc2c(c1)OCO2)c1ccc2c(c1)N(Cc1cccc(Cl)c1)C(=O)c1ccccc1S2=O (stereo not given) -16.7%
Cc1c(Cl)cccc1NC(=O)C1CCCN(c2nnc(-n3c(C)ccc3C)s2)C1 (stereo not given) -6.49%
CC1CCCN(c2nc3c(S(=O)(=O)c4ccc(C(C)C)cc4)nnn3c3ccsc23)C1 (stereo not given) -5.13%
COc1ccc(C2=C(C)C(=O)N(Cc3ccc(C(=O)Nc4cccc(F)c4)cc3)S2(=O)=O)cc1 -6.84%
Cc1ccc(-c2nc3c(C)cccn3c2Nc2ccccc2C)s1 -10.3%
Cc1ccc(F)cc1NC(=O)Cn1c(=O)nc(-c2ccccc2F)c2cc(Cl)ccc21 -17.2%
CCCC1=Nc2cc(C(=O)NCCc3ccc(OCC)cc3)ccc2Sc2ccccc21 -13%
COc1ccc(-c2csc(-c3nc(-c4ccc(Br)s4)cs3)n2)cc1F -11.6%
COc1ccccc1C(=O)NCc1nnnn1-c1ccc(C)c(C)c1 -2.83%
CCC1CCCCN1CCCNC(=O)c1c(O)nc2ccccn2c1=O (stereo not given) -8.21%
COc1cccc(CN2C(=O)c3ccccc3Sc3ccc(C(=O)NCCc4ccc(C)cc4)cc32)c1 -8%
CCCCCCCC/C=C\CCCCCCCC(=O)NCc1ccc(O)c(OC)c1 -10%
N#Cc1ccccc1NC(=O)CSc1ncn[nH]1 -8.36%
Cc1cccc(NC(=O)Cn2cc(C(=O)C3CCCCC3)c3ccccc32)c1C -64.3%
COc1ccccc1C(=O)N1CCCCC1CCN1CCOCC1 (stereo not given) -11.3%
O=C(Nc1ccc(-c2nc3cc(NC(=O)c4ccccc4F)ccc3o2)cc1)c1ccccc1F -10.5%
CN1C(=O)Cc2cc(S(=O)(=O)N3CCN(c4cccc(C(F)(F)F)c4)CC3)ccc21 -23.1%
Cc1ccc(C)c(NC(=O)c2nc(S(C)(=O)=O)ncc2N(Cc2ccc(C(C)(C)C)cc2)Cc2ccco2)c1 -2.04%
CCOc1ccc(C(=O)CSc2nc3cc(C(=O)NC4CCCC4)ccc3c(=O)n2CC2CCCO2)cc1 (stereo not given) -8.37%
CC(=O)c1ccc(NC(=O)c2ccc3c(c2)nnn3C2CCCC2)cc1 -18%
Cc1cccc(C(=O)Nc2ccc(C(=O)OCc3cc(=O)n4c5c(sc4n3)CCCC5)cc2)c1 -1.82%
Cc1ccc(CNC(=O)C(=O)NCC(c2cccnc2)N2CCN(c3ccc(F)cc3)CC2)cc1 (stereo not given) -11.4%
O=C(NCc1ccccc1)c1cc2sccc2n1Cc1ccc(F)cc1 -36.9%
CCOc1ccc(C(=O)c2cn(CC(=O)Nc3ccc4c(c3)OCCO4)c3ccc(OC)cc3c2=O)cc1 -5.68%
CCCc1nn2c(=O)cc(COC(=O)c3cccs3)nc2s1 -5.84%
COc1ccccc1NC(=O)c1sc2nc(C)c(C(=O)Nc3ccc(C)cc3C)c(-c3ccc(Br)cc3)c2c1N -13.1%
Cc1ccccc1CNC(=O)Cn1ccc2cc(S(=O)(=O)N3CCCCC3)ccc21 2.36%
Cn1c(=O)c2c(nc(Oc3ccc(F)cc3)n2Cc2ccc(F)cc2)n(C)c1=O -24.2%
Cc1ccc(C(=O)OCc2cc(=O)n3nc(-c4cccs4)sc3n2)cc1 -16.3%
Cc1ccccc1C(=O)OCc1cc(=O)n2nc(C3CC3)sc2n1 2.51%
CCOC(=O)c1c(S(=O)(=O)NCC(=O)Nc2cc(C)ccc2OC)c(C)n(C)c1C -20.8%
COc1ccc(NC(=O)CSc2nc3ccccc3nc2Cc2ccc(C)cc2)cc1Cl 3.16%
CCOc1ccc(CCn2c3c(c(=O)[nH]c2=O)C(NC(=O)c2ccccc2)(C(F)(F)F)C(=O)N3)cc1OCC (stereo not given) -18.6%
CCCCCn1c(=O)[nH]c2cc(C(=O)N3CCN(c4cc(Cl)ccc4C)CC3)ccc2c1=O -11.1%
CCOC(=O)N1CCC(NC(=O)c2ccc3c(c2)N(Cc2cc(C)ccc2C)C(=O)c2ccccc2S3(=O)=O)CC1 -15.9%
Cc1nc(-c2ccccc2)sc1-c1ccc(SCC(=O)NCc2ccccc2)nn1 -14.1%
CCOC(=O)c1ccc(Nc2nc3nonc3nc2Nc2cccc(C)c2C)cc1 -14.8%
O=C(Cn1cc(SCc2ccccc2F)c2ccccc21)N1CCCCCC1 -14.4%
